Patent US7592316B2, “Peptides as NS3-serine protease inhibitors of hepatitis C virus” (Schering Corporation, priority 2000, dated 2009)

Molecular target: HCV NS3/NS4A protease (strain 1a) (Hepatitis C virus genotype 1a, UniProt P27958)
Assay: biochemical
Settings: Table 6; HCV NS3/NS4A protease, 30° C., pH 6.5; read-out: Ki*

Ki [nM]	Compound
1 to 100	C=CCCC(NC(=O)[C@@H]1[C@@H]2[C@H](CN1C(=O)[C@@H](NC(=O)NC(C)(C)C)C1CCCCC1)C2(C)C)C(=O)C(=O)NCCC(=O)CC(C)C (stereo partly shown)
1 to 100	CC1(C)[C@@H]2[C@@H](C(=O)NC(CC3CCC3)C(=O)C(N)=O)N(C(=O)[C@@H](NC(=O)OC(C)(C)C(F)(F)F)C3CCCCC3)C[C@@H]21 (stereo partly shown)
1 to 100	C#CCCC(NC(=O)[C@@H]1[C@@H]2[C@H](CN1C(=O)[C@@H](NC(=O)OC(C)(C)C)C1CCCCC1)C2(C)C)C(=O)C(=O)NCCC(=O)N(C)Cc1ccccc1 (stereo partly shown)
1 to 100	CC(C)(C)OC(=O)N[C@H](C(=O)N1C[C@H]2[C@@H]([C@H]1C(=O)NC(CCC(F)(F)F)C(=O)C(N)=O)C2(C)C)C1Cc2ccccc2C1 (stereo partly shown)
101 to 1000	CCCC(NC(=O)[C@@H]1[C@@H]2[C@H](CN1C(=O)[C@@H](NC(=O)NC(C)(C)C)C(C)(C)C)C2(C)C)C(=O)C(=O)NCCC(O)Cc1ccccc1 (stereo partly shown)
101 to 1000	CC(C)(C)OC(=O)N[C@H](C(=O)N1C[C@H]2[C@@H]([C@H]1C(=O)NC(CC1CCC1)C(=O)C(N)=O)C2(C)C)C1(C)CCCCC1 (stereo partly shown)
1 to 100	CC(C)(C)NC(=O)N[C@H](C(=O)N1C[C@H]2[C@@H]([C@H]1C(=O)NC(CC1CC1)C(=O)C(=O)NCC(=O)NCc1ccccc1)C2(Cl)Cl)C1CCCCC1 (stereo partly shown)
1 to 100	CC(C)(C)NC(=O)N[C@H](C(=O)N1C[C@H]2[C@@H]([C@H]1C(=O)NC(CC1CCC1)C(=O)C(N)=O)C2(C)C)C1(C)CCCCC1 (stereo partly shown)
1 to 100	CC(C)(C)OC(=O)N[C@H](C(=O)N1C[C@H]2[C@@H]([C@H]1C(=O)NC(CC1CCC1)C(=O)C(N)=O)C2(Cl)Cl)C1Cc2ccccc2C1 (stereo partly shown)
1 to 100	C#CCCC(NC(=O)[C@@H]1[C@@H]2[C@H](CN1C(=O)[C@@H](NC(=O)NC(C)(C)C)C(C)(C)C)C2(C)C)C(=O)C(=O)NCCC(=O)OC(C)(C)C (stereo partly shown)
101 to 1000	C[C@@H](NC(=O)N[C@H](C(=O)N1C[C@H]2[C@@H]([C@H]1C(=O)NC(CC1CCC1)C(=O)C(N)=O)C2(C)C)C(C)(C)C)c1ccccc1 (stereo partly shown)
101 to 1000	CC(C)(C)OC(=O)N[C@H](C(=O)N1C[C@H]2[C@@H]([C@H]1C(=O)NC(CC1CCC1)C(=O)C(N)=O)C2(C)C)C(C)(C)O (stereo partly shown)
101 to 1000	CC(C)(C#N)OC(=O)N[C@H](C(=O)N1C[C@H]2[C@@H]([C@H]1C(=O)NC(CC1CCC1)C(=O)C(N)=O)C2(Cl)Cl)C1CCCCC1 (stereo partly shown)
1 to 100	CC(C)(C#N)OC(=O)N[C@H](C(=O)N1C[C@H]2[C@@H]([C@H]1C(=O)NC(CC1CC1)C(=O)C(N)=O)C2(Cl)Cl)C(C)(C)C (stereo partly shown)
1 to 100	CC(C)(C)NC(=O)N[C@H](C(=O)N1C[C@H]2[C@@H]([C@H]1C(=O)NC(C(=O)C(=O)NCC(=O)NCc1ccccc1)C1CCC1)C2(C)C)C(C)(C)C (stereo partly shown)
1 to 100	CC1(NC(=O)N[C@H](C(=O)N2C[C@H]3[C@@H]([C@H]2C(=O)NC(CC2CC2)C(=O)C(N)=O)C3(C)C)C(C)(C)C)CCCCC1 (stereo partly shown)
1 to 100	CC1(OC(=O)N[C@H](C(=O)N2C[C@H]3[C@@H]([C@H]2C(=O)NC(CC2CC2)C(=O)C(N)=O)C3(C)C)C(C)(C)C)CCCCC1 (stereo partly shown)
101 to 1000	CC(=O)OCC(C)(COC(C)=O)NC(=O)N[C@H](C(=O)N1C[C@H]2[C@@H]([C@H]1C(=O)NC(CC1CCC1)C(=O)C(N)=O)C2(Cl)Cl)C(C)(C)C (stereo partly shown)
101 to 1000	CC(CO)(CO)NC(=O)N[C@H](C(=O)N1C[C@H]2[C@@H]([C@H]1C(=O)NC(CC1CCC1)C(=O)C(N)=O)C2(Cl)Cl)C(C)(C)C (stereo partly shown)
101 to 1000	CC(C)(CO)NC(=O)N[C@H](C(=O)N1C[C@H]2[C@@H]([C@H]1C(=O)NC(CC1CCC1)C(=O)C(N)=O)C2(Cl)Cl)C1CCCCC1 (stereo partly shown)

Further lines, the compound ahead of its results:

Compound	Ki [nM]
C#CCCNC(=O)C(=O)C(CCC=C)NC(=O)[C@@H]1[C@@H]2[C@H](CN1C(=O)[C@@H](NC(=O)NC(C)(C)C)C1CCCCC1)C2(C)C (stereo partly shown)	1 to 100
C=CCCNC(=O)C(=O)C(CCC=C)NC(=O)[C@@H]1[C@@H]2[C@H](CN1C(=O)[C@@H](NC(=O)NC(C)(C)C)C1CCCCC1)C2(C)C (stereo partly shown)	1 to 100
C=CCCC(NC(=O)[C@@H]1[C@@H]2[C@H](CN1C(=O)[C@@H](NC(=O)OC(C)(C)C)C1CCCCC1)C2(C)C)C(=O)C(=O)NCCC(=O)N(C)Cc1ccccc1 (stereo partly shown)	101 to 1000
Cc1ccc(S(=O)(=O)CNC(=O)C(=O)C(CC2CC2)NC(=O)[C@@H]2[C@@H]3[C@H](CN2C(=O)[C@@H](NC(=O)OC(C)(C)C)C2CCCCC2)C3(C)C)cc1 (stereo partly shown)	1 to 100
CC(C)(C)[C@H](NC(=O)OC(C)(C)C(F)(F)F)C(=O)N1C[C@H]2[C@@H]([C@H]1C(=O)NC(CC1CCC1)C(=O)C(N)=O)C2(C)C (stereo partly shown)	101 to 1000
Cc1ccc(S(=O)(=O)CNC(=O)C(=O)C(CC2CC2)NC(=O)[C@@H]2[C@@H]3[C@H](CN2C(=O)[C@@H](NC(=O)NC(C)(C)C)C2CCCCC2)C3(C)C)cc1 (stereo partly shown)	101 to 1000
CC(C)(C)NC(=O)N[C@H](C(=O)N1C[C@H]2[C@@H]([C@H]1C(=O)NC(CC1CCC1)C(=O)C(=O)NCCC(=O)OC(C)(C)c1ccccc1)C2(Cl)Cl)C1CCCCC1 (stereo partly shown)	101 to 1000
CCCC(NC(=O)[C@@H]1[C@@H]2[C@H](CN1C(=O)[C@@H](NC(=O)NC(C)(C)C)C(C)(C)C)C2(C)C)C(=O)C(=O)N[C@@H](C)CC(=O)OC(C)(C)C (stereo partly shown)	1 to 100
C=CCNC(=O)C(=O)C(CCC(F)(F)F)NC(=O)[C@@H]1[C@@H]2[C@H](CN1C(=O)[C@@H](NC(=O)NC(C)(C)C)C1Cc3ccccc3C1)C2(C)C (stereo partly shown)	1 to 100
CCCC(NC(=O)[C@@H]1[C@@H]2[C@H](CN1C(=O)[C@@H](NC(=O)NC(C)(C)C)C(C)(C)C)C2(C)C)C(=O)C(=O)NCC(O)COc1ccccc1 (stereo partly shown)	101 to 1000
CCCC(NC(=O)[C@@H]1[C@@H]2[C@H](CN1C(=O)[C@@H](NC(=O)OC(C)(C)C)C1CCCCC1)C2(C)C)C(=O)C(=O)NCC(O)C(=O)OC(C)(C)C (stereo partly shown)	1 to 100
CC(=O)O[C@H](C(=O)N[C@H](C(=O)N1C[C@H]2[C@@H]([C@H]1C(=O)NC(CC1CCC1)C(=O)C(N)=O)C2(C)C)C1CCCCC1)c1ccccc1 (stereo partly shown)	1 to 100
CN(C)C(=O)[C@@H](NC(=O)CNC(=O)C(=O)[C@@H](CC1CC1)NC(=O)[C@@H]1[C@H]2CC(C)(C)O[C@H]2CN1C(=O)[C@@H](NC(=O)OC(C)(C)C)C1CCCCC1)c1cccs1	1 to 100
CN(C)C(=O)[C@@H](NC(=O)CNC(=O)C(=O)[C@H](CC1CC1)NC(=O)[C@@H]1[C@H]2CC(C)(C)O[C@H]2CN1C(=O)[C@@H](NC(=O)OC(C)(C)C)C1CCCCC1)c1cccs1	1 to 100
C[C@H](NC(=O)N[C@H](C(=O)N1C[C@H]2[C@@H]([C@H]1C(=O)NC(CC1CCC1)C(=O)C(N)=O)C2(C)C)C(C)(C)C)c1ccccc1 (stereo partly shown)	1 to 100
CC(C)(C)NC(=O)N[C@H](C(=O)N1C[C@H]2[C@@H]([C@H]1C(=O)NC(CC1CCC1)C(=O)C(N)=O)C2(Cl)Cl)C1Cc2ccccc2C1 (stereo partly shown)	1 to 100

Compound	Ki [nM]
CN(C)C(=O)CCNC(=O)CNC(=O)C(=O)C(CC1CCC1)NC(=O)[C@@H]1[C@@H]2[C@H](CN1C(=O)[C@@H](NC(=O)OC(C)(C)C)C1CCCCC1)C2(C)C (stereo partly shown)	1 to 100
CC(C)(C)NC(=O)N[C@H](C(=O)N1C[C@H]2[C@@H]([C@H]1C(=O)NC(CC1CCC1)C(=O)C(N)=O)C2(C)C)C(C)(C)O (stereo partly shown)	101 to 1000
CC(C)(C#N)OC(=O)N[C@H](C(=O)N1C[C@H]2[C@@H]([C@H]1C(=O)NC(CC1CCC1)C(=O)C(N)=O)C2(Cl)Cl)C(C)(C)C (stereo partly shown)	101 to 1000
CCCC(NC(=O)[C@@H]1[C@@H]2[C@H](CN1C(=O)[C@@H](NC(=O)OC(C)(C)C)C(C)(C)C)C2(C)C)C(=O)C(=O)NCC(O)C(=O)OC(C)(C)C (stereo partly shown)	101 to 1000
COC(=O)C(C)(C)OC(=O)N[C@H](C(=O)N1C[C@H]2[C@@H]([C@H]1C(=O)NC(CC1CCC1)C(=O)C(N)=O)C2(Cl)Cl)C1CCCCC1 (stereo partly shown)	101 to 1000
COC(=O)C(C)(C)OC(=O)N[C@H](C(=O)N1C[C@H]2[C@@H]([C@H]1C(=O)NC(CC1CCC1)C(=O)C(N)=O)C2(Cl)Cl)C(C)(C)C (stereo partly shown)	101 to 1000
COC(=O)C(C)(C)OC(=O)N[C@H](C(=O)N1C[C@H]2[C@@H]([C@H]1C(=O)NC(CC1CC1)C(=O)C(N)=O)C2(Cl)Cl)C(C)(C)C (stereo partly shown)	1 to 100
CC(C)(C)OC(=O)N[C@H](C(=O)N1C[C@H]2[C@@H]([C@H]1C(=O)NC(CC1CCC1)C(=O)C(N)=O)C21CCCC1)C(C)(C)C (stereo partly shown)	101 to 1000
CN(C)C(=O)[C@@H](NC(=O)CNC(=O)C(=O)C(CC1CC1)NC(=O)[C@@H]1[C@H]2CC(C)(C)O[C@H]2CN1C(=O)[C@@H](NC(=O)OC(C)(C)C(F)(F)F)C1CCCCC1)c1ccccc1 (stereo partly shown)	1 to 100
CN(C)C(=O)[C@@H](NC(=O)CNC(=O)C(=O)C(CC1CC1)NC(=O)[C@@H]1[C@H]2CC(C)(C)O[C@H]2CN1C(=O)[C@@H](NC(=O)NC(C)(C)C)C1CCCCC1)c1ccccc1 (stereo partly shown)	1 to 100
CC(=O)OCC(C)(C)NC(=O)N[C@H](C(=O)N1C[C@H]2[C@@H]([C@H]1C(=O)NC(CC1CCC1)C(=O)C(N)=O)C2(Cl)Cl)C1CCCCC1 (stereo partly shown)	101 to 1000
CC1(NC(=O)N[C@H](C(=O)N2C[C@H]3[C@@H]([C@H]2C(=O)NC(CC2CCC2)C(=O)C(N)=O)C3(C)C)C(C)(C)C)CCCCC1 (stereo partly shown)	1 to 100
CCCC(NC(=O)[C@@H]1[C@@H]2[C@H](CN1C(=O)[C@@H](NC(=O)OC(C)(C)C(F)(F)F)C(C)(C)C)C2(C)C)C(=O)C(=O)NCC(=O)NCc1ccccc1 (stereo partly shown)	1 to 100
CCCC(NC(=O)[C@@H]1[C@H]2[C@@H](CN1C(=O)[C@@H](NC(=O)NC(C)(C)C)C(C)(C)C)C2(C)C)C(=O)C(=O)NCC(=O)NCc1ccccc1 (stereo partly shown)	1 to 100
CC(=O)OCC(C)(C)NC(=O)N[C@H](C(=O)N1C[C@H]2[C@@H]([C@H]1C(=O)NC(CC1CCC1)C(=O)C(N)=O)C2(Cl)Cl)C(C)(C)C (stereo partly shown)	101 to 1000
CN(C)C(=O)[C@@H](NC(=O)CNC(=O)C(=O)C(CC1CC1)NC(=O)[C@@H]1[C@H]2CC(C)(C)O[C@H]2CN1C(=O)[C@@H](NC(=O)OC(C)(C)C)C1CCCCC1)c1ccc(Br)cc1 (stereo partly shown)	1 to 100
